Test results: paper PMC5913127 (2018)

Target: m266
Assay: SPR

Sequence of m266 (P05067 672-699): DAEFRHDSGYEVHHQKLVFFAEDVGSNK

Kd: 0.84 nM
koff: 0.00012 s⁻¹
B1: Aβ_([…]) peptide (peptide)
peptide: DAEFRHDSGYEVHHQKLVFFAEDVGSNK
